Laboratory results as given in the supplement of paper PMC11417369.
± gives the standard deviation of the averaged measurements. The list shows a part of the results.

system: PfAP2-I AP2 domain 3 (GST-tagged); assay: gcPBM binding intensity (ln(normalized median fluorescence intensity)); higher = stronger DNA binding
Outline: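 Binding intensity is defined as the maximum Masliner-normalised natural-log median intensity across replicate spots for either probe orientation. It was measured on an Agilent 4 × 180k array of primer-extended double-stranded 36-bp intergenic genomic probes and negative controls, to which GST-tagged P. falciparum DNA-binding domains made in E. coli were applied for 1 h in 1× PBS with 1% milk, 0.2 mg/ml BSA, 0.5% salmon testes DNA and 0.03% Triton X-100. Detection was by Alexa488 anti-GST antibody and scanning at 488 nm.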

In order of falling “gcPBM binding intensity (ln)” value:
1. TTTTTAAATTATTGCACACAAAAATGAAAGGAAAAA [CACACA_site1455]  10.1 ± 0.6
2. AAACAGAATGCATATACACACATACAAAAAAGTGCA [CACACA_site6591]  9.05 ± 0.88
3. TAATTCATCATATGCACACACAATACCAAAATGTGC [CACACA_site191]  9.04 ± 0.18
4. GTACAAAAATAAATTGCACACATTTTAATAAAAAAA [CACACA_site2130]  8.82 ± 0.12
5. TATGTGGCACAAAAGGGTACATATAATTTATACAGG [XGTACX_site5499]  8.78 ± 0.28
6. TATATTTTTTTTGTGCGTACATACCATTTTAATAAT [XGTACX_site2751]  8.71 ± 0.16
7. AAGTAAAAAAATAGCACACACACAAAAACACAGACA [CACACA_site4839]  8.44 ± 0.18
8. CACAAACAAAAACACACACACACACCCACAAAAATG [CACACA_site2429]  8.29 ± 0.057
9. TTTCTAAACCGGTACAGTACATATAAAAATAGAATA [XGTACX_site6662]  7.99 ± 0.42
10. CAAAATTGACATGACGCACACAAGTGTAGATATTTT [CACACA_site1250]  7.97 ± 0.67
11. AAAAAAAAAAAACACACACACACACTAATACATACA [CACACA_site8135]  7.92 ± 0.45
12. TACATATTTATATACACACACACCGTCCGTGTTAAA [CACACA_site7413]  7.91 ± 0.47
13. TGTGTACCGATATTAAGTTTAACGTTATAAAAATAT [CACACA_negctrl_site1547]  7.89 ± 0.53
14. TTTCCCTACCAAAAATGTACTTATAAGCGTTTTTAT [XGTACX_site739]  7.88 ± 0.63
15. AGTGTATTTTTATGTTGTACATGTAATATTTTTGAT [XGTACX_site541]  7.87 ± 0.43
16. TAGTTGTTTATAACACGTTGACAGAAATGTTATGTA [GTGCAC_negctrl_site624]  7.85 ± 0.72
17. AAAGGACAAAAAAATGCATGCCGTTAAATTATGTAC [TGCATGCA_site512]  7.78 ± 0.83
18. TATATAATATATTAATGTACGTTATATGTATTCCTT [XGTACX_site6140]  7.78 ± 0.47
19. TATATTTATTTATATACACACATATTTATAAATATA [CACACA_site7047]  7.74 ± 0.5
20. AGATTTAAATATCATACACACTTTATCTATAATACA [CACACA_site6581]  7.66 ± 0.73
21. TACAGATATTCATATAAACACACATACAAATTATGT [CACACA_site7929]  7.58 ± 0.69
22. CTTTTTTTTTAAATATCACACACATATAATATATTC [CACACA_site9222]  7.54 ± 0.61
23. CTAAAAATCTTTTGTTGTACTTTTAGATAATCAGGA [XGTACX_site3968]  7.5 ± 0.6
24. AAAGGGATGTTCATTCTTTTTTTTTTTTTTGTATAT [CACACA_negctrl_site511]  7.16 ± 0.6
